Consider five molecules from PMC8024281.

Protein sequences, listed by entry. Tags and fused reporters are not part of them.
UniProt P42771: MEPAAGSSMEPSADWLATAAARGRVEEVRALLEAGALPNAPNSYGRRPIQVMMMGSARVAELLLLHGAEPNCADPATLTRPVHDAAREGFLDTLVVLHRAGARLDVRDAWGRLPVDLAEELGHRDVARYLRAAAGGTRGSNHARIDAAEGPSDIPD
UniProt P55271: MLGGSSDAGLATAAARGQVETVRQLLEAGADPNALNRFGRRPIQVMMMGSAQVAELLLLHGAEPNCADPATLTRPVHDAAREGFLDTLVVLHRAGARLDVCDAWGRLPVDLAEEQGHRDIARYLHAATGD
UniProt P06733: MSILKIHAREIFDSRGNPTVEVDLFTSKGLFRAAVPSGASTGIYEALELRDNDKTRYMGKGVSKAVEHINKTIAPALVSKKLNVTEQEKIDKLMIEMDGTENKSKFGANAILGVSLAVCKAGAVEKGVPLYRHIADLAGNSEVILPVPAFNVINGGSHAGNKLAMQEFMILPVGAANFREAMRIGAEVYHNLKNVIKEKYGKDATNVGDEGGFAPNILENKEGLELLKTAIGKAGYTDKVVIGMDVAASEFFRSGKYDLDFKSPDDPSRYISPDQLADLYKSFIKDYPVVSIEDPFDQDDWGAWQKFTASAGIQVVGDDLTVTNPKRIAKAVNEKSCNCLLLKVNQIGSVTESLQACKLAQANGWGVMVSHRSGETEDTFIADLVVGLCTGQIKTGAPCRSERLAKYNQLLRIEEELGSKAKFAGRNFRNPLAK
UniProt P09104: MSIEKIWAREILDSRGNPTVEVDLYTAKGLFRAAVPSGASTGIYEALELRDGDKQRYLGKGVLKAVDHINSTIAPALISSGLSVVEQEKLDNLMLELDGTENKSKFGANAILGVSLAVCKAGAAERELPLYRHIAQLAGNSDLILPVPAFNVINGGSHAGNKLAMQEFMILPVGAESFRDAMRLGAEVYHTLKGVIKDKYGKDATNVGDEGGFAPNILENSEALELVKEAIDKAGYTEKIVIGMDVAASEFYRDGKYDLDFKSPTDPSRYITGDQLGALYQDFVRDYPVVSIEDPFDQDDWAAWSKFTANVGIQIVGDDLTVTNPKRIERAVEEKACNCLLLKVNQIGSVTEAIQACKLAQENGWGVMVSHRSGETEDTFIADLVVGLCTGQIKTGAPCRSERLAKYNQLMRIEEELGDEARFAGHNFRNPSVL
UniProt P52480: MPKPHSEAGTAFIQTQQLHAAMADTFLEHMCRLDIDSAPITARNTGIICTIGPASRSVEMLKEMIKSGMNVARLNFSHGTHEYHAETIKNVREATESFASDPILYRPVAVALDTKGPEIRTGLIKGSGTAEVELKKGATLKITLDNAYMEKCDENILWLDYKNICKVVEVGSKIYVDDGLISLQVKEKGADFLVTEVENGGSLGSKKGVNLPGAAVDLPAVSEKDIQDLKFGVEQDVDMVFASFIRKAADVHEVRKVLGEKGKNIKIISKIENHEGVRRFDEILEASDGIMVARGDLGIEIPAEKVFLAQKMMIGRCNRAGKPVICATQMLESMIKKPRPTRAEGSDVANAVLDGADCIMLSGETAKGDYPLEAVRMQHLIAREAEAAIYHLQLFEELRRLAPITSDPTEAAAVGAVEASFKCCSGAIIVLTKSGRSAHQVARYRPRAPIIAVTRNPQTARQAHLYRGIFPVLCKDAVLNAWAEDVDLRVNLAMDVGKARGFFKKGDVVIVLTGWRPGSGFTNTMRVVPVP

One assay has as its target p15 protein (Abcam) (UniProt P42772). The assay can be described thus: ELISA; p15 (2.5 μg/ml) coated on a 96-well plate, blocked with 1% BSA; CDK4 (5 μg/ml) added with 0–40 μg/ml enolase-1, 37 °C 2 h; bound CDK4 detected with anti-CDK4 antibody, HRP, TMB, 450 nm; both purified.
Assay [1] addresses Myc-tagged p15^INK4B (wild type) (human) (UniProt P42772). The assay can be described thus: co-IP; UMUC3 cells induced to express the Myc-tagged protein; RIPA buffer (25 mM Tris-HCl pH 7.6, 150 mM NaCl, 1% NP-40); anti-Myc-tag antibody overnight at 4 °C, protein A/G agarose 4 h; western blot with densitometry; also done after shRNA knock-down of enolase-1. Background: Immunoblotting shows a protein as a band on a membrane.

In assay [2] the target is Myc-tagged p16^INK4A (wild type) (human) (UniProt P42771). The description is as above.
Assay [3] has as its target Histidine-tagged p16^INK4A (wild type), E. coli-produced (human) (UniProt P42771). The assay can be described thus: pull-down; His-tagged protein from E. coli incubated with total UMUC3 lysate (RIPA buffer) overnight at 4 °C, Ni-NTA column, eluted with increasing imidazole; western blot with densitometry; only the target purified.
Assay [4] deals with Histidine-tagged p15^INK4B (wild type), E. coli-produced (human) (UniProt P42772). The description is as above.
Assay [5] addresses p15^INK4B (endogenous, mouse urothelial cells) (mouse (endogenous in urothelial cells)) (UniProt P55271). As to the kind of experiment: co-IP; total proteins of mouse urothelial cells expressing HRas* (with or without p15); immunoprecipitation of endogenous p15 or p16, western blot.
Assay [6] has as its target T1, p15 protein (Abcam), P42772.
T1 chain: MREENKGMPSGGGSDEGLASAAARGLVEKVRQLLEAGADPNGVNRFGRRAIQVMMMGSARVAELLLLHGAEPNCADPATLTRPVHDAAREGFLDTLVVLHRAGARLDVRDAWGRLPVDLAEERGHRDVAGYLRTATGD
The assay can be described thus: ELISA; p15 (2.5 μg/ml) coated on a 96-well plate, blocked with 1% BSA; CDK4 (5 μg/ml) added with 0–40 μg/ml enolase-1, 37 °C 2 h; bound CDK4 detected with anti-CDK4 antibody, HRP, TMB, 450 nm; both purified. The conditions noted are these: remark: other sources report otherwise. (In an ELISA, binding on a coated surface is turned into a signal by an enzyme label.)

No constants are given. Whether binding was seen depends on the method and setting. For some assays here: In cells and extracts the contact can be indirect. Some results given as binding are weak or reduced against the parent protein; the word gives no strength.

As to “enolase-1 (Sino Biological), purified (from UniProt P06733 1-434) (enzyme)”, in the assay with p15 protein (Abcam), the binding entry is reported as “binds”. Turning to “enolase-1 (endogenous, UMUC3) (from UniProt P06733 1-434) (enzyme)”, the binding entry in assay [1] is “binds”; in assay [2] it was “no binding”; in assay [3], “no binding”; in assay [4], “binds”. Take “enolase-2 (endogenous, UMUC3) (from UniProt P09104 1-434) (enzyme)”: the binding entry in assay [1] is “no binding”. As to “pyruvate kinase 2 (PKM2) (endogenous, mouse urothelial cells) (from UniProt P52480 1-531) (enzyme)”, the binding entry in assay [5] was “no binding”.

B1: CDK4 (Novus), P11802 1-303 (enzyme)
chain: MATSRYEPVAEIGVGAYGTVYKARDPHSGHFVALKSVRVPNGGGGGGGLPISTVREVALLRRLEAFEHPNVVRLMDVCATSRTDREIKVTLVFEHVDQDLRTYLDKAPPPGLPAETIKDLMRQFLRGLDFLHANCIVHRDLKPENILVTSGGTVKLADFGLARIYSYQMALTPVVVTLWYRAPEVLLQSTYATPVDMWSVGCIFAEMFRRKPLFCGNSEADQLGKIFDLIGLPPEDDWPRDVSLPRGAFPPRGPRPVQSVVPEMEESGAQLLLEMLTFNPHKRISAFRALQHSYLHKDEGNPE
B1: in assay [6], the binding entry is “binds”.
